Reference: US20230250147A1, “GLP-1R AGONISTIC PEPTIDES WITH REDUCED ACTIVITY” (SANOFI, priority 2020, published 2023)

Legend:
Human GLP-1R = biological target: T1, Human GLP-1R (Homo sapiens, UniProt P43220); assay: HTRF cAMP assay in HEK-293 cells, human GLP-1R; type: cell-based
T1 construct: expressed in transfected cells; host or cells: HEK-293

Mouse GLP-1R = biological target: T2, Mouse GLP-1R (Mus musculus, UniProt O35659); assay: HTRF cAMP assay in HEK-293 cells, mouse GLP-1R; type: cell-based
T2 construct: expressed in transfected cells; host or cells: HEK-293
T2 sequence (O35659 22-463): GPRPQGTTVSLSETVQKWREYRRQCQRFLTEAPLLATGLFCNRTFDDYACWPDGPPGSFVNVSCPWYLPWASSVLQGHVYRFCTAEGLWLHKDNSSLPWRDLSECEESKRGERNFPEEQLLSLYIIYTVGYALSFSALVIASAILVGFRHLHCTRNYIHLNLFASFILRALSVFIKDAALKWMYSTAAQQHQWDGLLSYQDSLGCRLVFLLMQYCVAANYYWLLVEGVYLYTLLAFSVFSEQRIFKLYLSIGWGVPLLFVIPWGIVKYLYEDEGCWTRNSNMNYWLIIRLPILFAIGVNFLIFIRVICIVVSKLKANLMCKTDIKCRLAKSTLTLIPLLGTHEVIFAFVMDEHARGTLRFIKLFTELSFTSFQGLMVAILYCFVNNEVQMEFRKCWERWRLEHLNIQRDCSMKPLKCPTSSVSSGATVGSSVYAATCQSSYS

Monkey GLP-1R = biological target: T3, Monkey GLP-1R (Macaca fascicularis, UniProt F8V479); assay: HTRF cAMP assay in HEK-293 cells, monkey GLP-1R; type: cell-based
T3 construct: expressed in transfected cells; host or cells: HEK-293

[1] = Conformational and thermal stability on UNit (intrinsic fluorescence and static light scattering); type: physicochemical; details: 5 mg/mL in phosphate buffer pH 7.4; for Tagg (aggregation onset temperature): UNit SLS 266 nm; for Tm (melting temperature): UNit
Protocol: Conformational stability and propensity to aggregate was determined simultaneously for the GLP-1RA/FGF21 Fc fusion proteins using a UNit (Unchained Labs, Calif., USA). The UNit combines the analysis of intrinsic fluorescence of a protein or polypeptide to detect unfolding of the protein or polypeptide and a Static Light Scattering (SLS) measurement in order to investigate aggregation behavior.
Data were acquired for the fusion proteins at a concentration of 5 mg/mL formulated in phosphate buffer at pH 7.4. A volume of 9 μL of each sample were loaded into a UNi capillary holder and analyzed in triplicate on the UNit. The temperature was increased from 20 to 95° C. at a constant linear rate of 0.3° C./minutes. The BaryCentric Mean (BCM) indicating the intrinsic fluorescence and SLS signals detected with a 266 nm laser were plotted against the applied temperature in order to obtain melting temperatures (Tm) and aggregation onset temperatures (Tagg). Data were analyzed using the UNit Analysis software v.

[2] = Pharmacokinetics after single subcutaneous administration in mouse; type: in vivo, female C57BI/6 mice; details: 0.3 mg/kg subcutaneous
Protocol: (§1) Plasma concentrations and pharmacokinetic parameters of GLP-1 RA/FGF21 Fc fusion proteins were determined after single subcutaneous administration of 0.3 mg/kg in solution to female C57BI/6 mice or male Cynomolgus monkeys using three different methods. Blood samples were obtained at time points from 30 minutes to 168 hours after dosing. […]
(§2) a.) Bioanalytical Screening Method for Quantification of the Intact FGF21 Part of the GLP-1 RA/FGF21 Fc Fusion Proteins Plasma samples were analyzed for the intact FGF21 part of the fusion proteins with an ELISA kit (F1231-K01, Eagle Biosciences, USA). The assay utilized the two-site sandwich technique with two selected antibodies that bound to different epitopes of human intact FGF21. One of the antibodies specifically bounds to the N-terminal amino acids (aa) 29-35 of human FGF21 and the other antibody specifically bound to the C-terminus (aa 203-209) of human FGF21. Assay standards, controls and unknown samples were added directly to wells of microplate that is coated with an anti-human FGF21 (aa 29-35)-specific antibody. Simultaneously, a horseradish peroxidase conjugated anti-human FGF21 (aa 203-209)-specific antibody was added to each well. After the first incubation period, the antibody on the walls of microtiter wells captured human FGF21 in the sample and unbound protein in each microtiter well is washed away. A “sandwich” of “anti-FGF21 antibody-human intact FGF21-HRP conjugated tracer antibody” was formed. The unbound tracer antibody was removed in the subsequent washing step. For the detection of this immunocomplex, the well was then incubated with a substrate solution in a timed reaction and then measured in a spectrophotometric microplate reader. The enzymatic activity of the immunocomplex bound to human intact FGF21 on the walls of the microtiter wells was directly proportional to the amount of intact FGF21 in the sample. […]
b.) Bioanalytical Screening Method for Quantification of the Intact Full-Length Fusions Proteins The concentration of the full-length GLP-1RA/FGF21 Fc fusion proteins in plasma were determined utilizing an ELISA method. The N-terminus of the fusion proteins were captured by a mouse monoclonal anti-GLP1 antibody (Mesoscale Discovery, MSD). […] Following washing 3 times with 300 μL PBS-T 150 μL read buffer was added to the wells. […]
c.) Bioanalytical Screening Method for Quantification of the Intact GLP-1 Part of the GLP-1 FGF21 Fc Fusion Proteins Plasma samples were analyzed for the intact GLP-1 part of the fusion proteins with a GLP-1 ELISA method. […]

[3] = Pharmacokinetics after single subcutaneous administration in non-human primate; type: in vivo, male Cynomolgus monkeys; details: 0.3 mg/kg subcutaneous
Protocol: as §1, §2
b.) Bioanalytical Screening Method for Quantification of the Intact Full-Length Fusions Proteins The concentration of the full-length GLP-1RA/FGF21 Fc fusion proteins in plasma were determined utilizing an ELISA method. The N-terminus of the fusion proteins were captured by a mouse monoclonal anti-GLP1 antibody (Mesoscale Discovery, MSD). Following blocking the plates with 150 μL of Blocker A (MSD) for 1 hour at room temperature (RT) with gentle shaking and washing 3 times with 300 μL wash buffer 50 μL of diluted plasma samples (standards and PK study samples) were added to each well and the plates were incubated for 1 hour at RT with gentle shaking. Following washing 3 times with 300 μL wash buffer 50 μL of the primer detection antibody (C-terminus rabbit anti-FGF21 antibody, Pineda Antikörper-Service, Berlin, Germany) was added to each well and the plates were incubated for 1 hour at RT. Following washing 3 times with 300 μL wash buffer 25 μL goat-anti-rabbit antibody (Sulfo-Tag labelled, MSD) diluted in PBS-Tween 0.05% (PBS-T) was added to each well and the plates were incubated for 1 hour at RT. Following washing 3 times with 300 μL PBS-T 150 μL read buffer was added to the wells. […]
c.) Bioanalytical Screening Method for Quantification of the Intact GLP-1 Part of the GLP-1 FGF21 Fc Fusion Proteins Plasma samples were analyzed for the intact GLP-1 part of the fusion proteins with a GLP-1 ELISA method. The ELISA plates were coated with mouse monoclonal anti-GLP-1 antibody (Mesoscale Discovery, MSD). Following blocking with 150 μL of Blocker A (MSD) for 1 hour at room temperature (RT) with gentle shaking and washing 3 times with 300 μL PBS-T, 50 μL of diluted plasma samples (standards and PK study samples) were added to each well and the plates were incubated for 1 hour at RT with gentle shaking. Following washing 3 times with 300 μL PBS-T, 25 μL of goat anti-human IgG diluted ( 1/3,333) in PBS-T (Sulfo-Tag labelled, MSD) was added to each well and the plates were incubated for 1 hour at RT. […]

T3 sequence (F8V479 24-463): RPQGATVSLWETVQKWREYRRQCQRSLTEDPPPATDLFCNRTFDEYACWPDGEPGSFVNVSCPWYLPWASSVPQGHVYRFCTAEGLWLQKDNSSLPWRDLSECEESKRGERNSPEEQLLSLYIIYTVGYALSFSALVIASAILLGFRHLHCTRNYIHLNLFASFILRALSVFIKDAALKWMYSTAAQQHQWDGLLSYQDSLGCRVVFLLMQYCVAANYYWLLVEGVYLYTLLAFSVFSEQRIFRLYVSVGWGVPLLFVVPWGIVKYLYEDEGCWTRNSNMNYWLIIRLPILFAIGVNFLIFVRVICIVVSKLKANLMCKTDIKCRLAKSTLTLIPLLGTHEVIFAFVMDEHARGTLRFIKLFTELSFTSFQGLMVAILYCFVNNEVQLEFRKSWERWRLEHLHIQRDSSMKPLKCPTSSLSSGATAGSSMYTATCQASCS
T1 sequence (P43220 24-463): as the sequence (F8V479 24-463) above, with N112S, S120F, G202S, V205L, F237L, R241W, V249I counted along it

B1: 7 (protein)
chain: GHGEGTFTSDKSKQLEEEAVRLFIEWLKAGGPKKIRYSGGGGGGGSGGGGSGGGGSA[… human IgG1 Fc with changes …]GGGSGSAHPIPDSSPLLQFGGQVRQRYLYTDDACQTEAHLEIREDGTVGGAADQSPESLLQLKALKPGVIQILGVKTSRFLCQRPDGALYGSLHFDPEACSFRELLLEDGYNVYQSEAHGLPLHLPGCKSPHRDPAPRGPARFLPLPGLPPAPPEPPGILAPQPPDVGSSDPLSMVGSQGRSPSYAS
modifications: Fusion Protein
Human GLP-1R
  EC50: 0.131 nM
Mouse GLP-1R
  EC50: 0.0681 nM
Monkey GLP-1R
  EC50: 0.19 nM
[1]
  Tagg (aggregation onset temperature): 66.1 °C
  Tm (melting temperature): 68.7 °C
[2]; FGF21 intact assay
  t1/2 mouse: 14.2 h
[2]; full-length assay
  t1/2 mouse: 13.9 h
[3]; FGF21 intact assay
  t1/2 monkey: 31.7 h
[3]; GLP-1 intact assay
  t1/2 monkey: 21.3 h
[3]; full-length assay
  t1/2 monkey: 28.7 h

B2: 8 (protein)
chain: GHGEGTFTSDKSKQLEEEAVRLFIEWLKAGGPKKIRYSGGGGGGGSGGGGSGGGGSA[… human IgG1 Fc with changes …]GGGSGSAHPIPDSSPLLQFGGQVRQRYLYTDDACQTEAHLEIREDGTVGGAADQSPESLLQLKALKPGVIQILGVKTSRFLCQRPDGALYGSLHFDPEACSFRELLLEDGYNVYQSEAHGLPLHLPGCKSPHRDPAPRGPARFLPLPGLPPAPPEPPGILAPQPPDVGSSDPLSMVYPSQGRSPSYAS
modifications: Fusion Protein
Human GLP-1R
  EC50: 0.152 nM
Mouse GLP-1R
  EC50: 0.0771 nM
Monkey GLP-1R
  EC50: 0.217 nM
[1]
  Tagg (aggregation onset temperature): 65.3 °C
  Tm (melting temperature): 68.6 °C
[2]; FGF21 intact assay
  t1/2 mouse: 17.9 h
[2]; full-length assay
  t1/2 mouse: 13.3 h
[3]; FGF21 intact assay
  t1/2 monkey: 33.6 h
[3]; GLP-1 intact assay
  t1/2 monkey: 23.7 h
[3]; full-length assay
  t1/2 monkey: 27.6 h
